Results: PubChem BioAssay AID463173 (ICCB-Longwood Screening Facility, Harvard Medical School, 2010)
About 1,700 (3.3%) of roughly 52,000 compounds were called active. Cut-off read from the data, not from the text of the source: active = survival mostly below about 52% (no sharp cut-off); inactive = mostly above about 56%. This is one part of the list.

System: Wild type
Experiment: growth inhibition of S. aureus wild type versus tarO mutant, primary screen, teichoic acid synthesis inhibitors, RN4220, OD600 (AID 463173)
Conditions: S. aureus RN4220 wild type/DeltatarO growth, OD600, 18 h, active compounds read low, screened at 18.75 µg/mL (by protocol)

Row | SMILES | survival
1 | CC(=O)NCCn1c(SCC(=O)Nc2ccc(C)cc2)nc2ccccc2c1=O | inactive: 73%
2 | CCCCNC(=O)C1CCC(CNS(=O)(=O)c2ccc(Cl)cc2)CC1 (stereo not drawn) | inactive: 119%
3 | CCc1ccc(S(=O)(=O)N(C(=O)Oc2ccccc2)c2ccc3oc(C)c(C(=O)OC)c3c2)cc1 | inactive: 89%
4 | CCCCn1c(SCC(=O)NCc2ccco2)nc2ccccc2c1=O | inactive: 107%
5 | CCCCOc1cccc(C(=O)N(Cc2cccs2)c2ccc(OC)cc2)c1 | inactive: 83%
6 | Cc1c(-c2ccc(Cl)cc2)c(=O)oc2ccc(OC(=O)N3CCOCC3)cc12 | inactive: 68%
7 | COc1cccc(-n2c(-c3cccc(F)c3)nc3c(cnn3-c3ccc(C)cc3)c2=O)c1 | inactive: 87%
8 | COCCn1nnnc1C(c1cc2c(C)ccc(C)c2[nH]c1=O)N1CCCc2ccccc21 (stereo not drawn) | inactive: 105%
9 | Cc1ccc(Cl)cc1-n1ncc2c(N3CCCCCC3)ncnc21 | inactive: 120%
10 | CCCCN(CCCC)C(=O)C1CCN(S(=O)(=O)c2cccc3nsnc23)CC1 | inactive: 129%
11 | CCN(Cc1ccccc1)c1ncnc2c1nnn2C | inactive: 65%
12 | O=S(=O)(NCc1ccc(Cl)cc1)c1ccc(-c2cnc(C3CC3)o2)cc1 | inactive: 77%
13 | COc1ccc(OC)c(/C=C/C(=O)Nc2ccc(C(=O)OCCC(C)C)cc2)c1 | inactive: 42%
14 | Cc1ccccc1CN1C(=O)c2ccccc2Sc2ccc(C(=O)NC3CCCC3)cc21 | inactive: 75%
15 | COc1ccccc1CNC(=O)CC(c1ccc(OC)c(OC)c1)N1Cc2ccccc2C1=O (stereo not drawn) | inactive: 84%
16 | CCc1cnc2c(c1SCC(=O)c1ccc(OC)cc1)c(=O)n(C)c(=O)n2C | inactive: 75%
17 | O=C(NCc1ccc(F)cc1)c1cc(-c2ccc(Cl)cc2)n[nH]1 | inactive: 94%
18 | O=C(Nc1cccnc1)c1cc(-c2cccc(Cl)c2)on1 | inactive: 141%
19 | O=C(O)c1cccc(Nc2ncnc3scc(-c4ccccc4)c23)c1 | inactive: 64%
20 | CCc1ccc(S(=O)(=O)c2nnn3c2nc(Nc2ccc(F)cc2)c2cc(Cl)ccc23)cc1 | inactive: 94%

Row | SMILES | survival
21 | CCC(C)NC(=O)CCSc1nc(-c2ccc(OC)cc2)cc(C(F)(F)F)n1 (stereo not drawn) | inactive: 127%
22 | CN(C)c1ccc(-c2nc3ccccc3s2)cc1 | inactive: 114%
23 | COc1ccc(NC(=O)c2cc(CN3CCCC3)on2)cc1Cl | inactive: 72%
24 | N=c1n(CCN2CCCCC2)c2ccccc2n1CC(=O)c1ccc(Br)s1 | inactive: 104%
25 | CC(C)N(Cc1ccc(C(=O)O)o1)C(C)C | inactive: 112%
26 | Cc1ccccc1C(=O)Oc1c(Sc2ccccc2)c(C)nn1C(C)(C)C | inactive: 50%
27 | Cc1ccc(C(=O)Nc2nnc(S(=O)(=O)N3CCc4ccccc43)s2)cc1 | inactive: 33%
28 | CN1C(=O)/C(=C/C=C2/CCCN2C)N(C)C1=S | inactive: 109%
29 | COc1ccc(CC(=O)NCc2ccc3c(c2)CCN3C(=O)c2ccc(Cl)cc2)cc1 | inactive: 83%
30 | CCc1ccc2oc(-c3cc(NC(=O)c4cccnc4)cc(C)c3O)nc2c1 | inactive: 87%
31 | COc1ccc(CCNC(=O)Cn2ncc3c(=O)oc4ccccc4c32)c(OC)c1 | inactive: 76%
32 | CCOc1ccc(NC(=O)c2oc3ccccc3c2NC(=O)c2cc(C)cc(C)c2)cc1 | inactive: 70%
33 | CCOc1ccc(NC(=O)c2cnc(Nc3ccccc3OC)c3ccccc23)cc1 | inactive: 68%
34 | CC(C)Oc1ccc(CNC(=O)c2cccc(NC(=O)N3CCSc4ncccc43)c2)cc1 | inactive: 79%
35 | Cc1cccc(Cc2c(C)nc3nc(SCC(=O)NCc4ccccc4)nn3c2C)c1 | inactive: 71%
36 | CCOC(=O)CSc1nc2sc3c(c2c(=O)n1-c1ccccc1)CCC(C(C)(C)C)C3 (stereo not drawn) | inactive: 70%
37 | CCC(=O)N1CCc2cc(Br)cc(S(=O)(=O)N3CCCC(C(=O)Nc4cccc(F)c4)C3)c21 (stereo not drawn) | inactive: 95%
38 | CCOc1ccc(CCNC(=O)CCSCc2ccc(Cl)cc2)cc1OCC | inactive: 76%
39 | COc1cccc(CNC(=O)CN(c2ccc(C(C)C)cc2)S(=O)(=O)c2c(C)noc2C)c1 | inactive: 76%
40 | O=C(Nc1cccc(Br)c1)N1CCC(CN2CCCCCC2)CC1 | inactive: 67%

Row | SMILES | survival
41 | Cn1c(=O)oc2cc(S(=O)(=O)N3CCC(C(=O)Nc4ccc(F)c(Cl)c4)CC3)ccc21 | inactive: 85%
42 | CCOC(=O)c1sc(NC(=O)c2cc3nc(-c4ccccc4)cc(C(F)(F)F)n3n2)c(C(=O)OCC)c1C | inactive: 63%
43 | Cc1cc(C)cc(Oc2c(C(F)(F)F)oc3cc(OCC(=O)NC4CCCCC4)ccc3c2=O)c1 | inactive: 103%
44 | O=C(NN1C(=O)c2ccccc2C1=O)C1CC2CCC1C2 (stereo not drawn) | inactive: 106%
45 | CCOC(=O)c1cc(-c2ccccc2)n(-c2cccc(C(=O)Nc3cc(OC)cc(OC)c3)c2)c1C | inactive: 88%
46 | CCC(C)NC(=O)CSc1nc2c(sc3ccccc32)c(=O)n1Cc1ccccc1Cl (stereo not drawn) | inactive: 76%
47 | Cc1ccc(C)c(CSc2nc3ccncc3n2CC(=O)Nc2ccc(N(C)C)cc2)c1 | inactive: 74%
48 | Cc1cccc2nc(-c3cccc(NS(=O)(=O)c4ccccc4)c3)cn12 | inactive: 56%
49 | Cc1ccc(C)c(Cn2c3ccccc3c3cnn(CC(=O)NCc4ccccc4)c(=O)c32)c1 | inactive: 89%
50 | Cc1ccc(NC(=O)CSc2nc(-c3ccco3)nc3cc(=O)[nH]n23)cc1C | inactive: 131%
51 | Cc1cc(C)c(NC(=O)Nc2ccc3snnc3c2)c(C)c1 | inactive: 99%
52 | Clc1ccccc1CNc1ncnc2c1c(-c1ccccc1)cn2-c1ccccc1 | inactive: 69%
53 | Fc1ccccc1Cn1c(-c2ccccc2)nc2ccccc21 | active: 1%
54 | COCCCNC(=O)CSc1nc2c(sc3ccccc32)c(=O)n1CCCC(=O)NCCOC | inactive: 86%
55 | CC(=O)c1ccc(NC(=O)COCc2cc(-c3ccco3)on2)cc1 | inactive: 129%
56 | COc1cccc(N2CC(NC(=O)c3cccc(OC)c3OC)CC2=O)c1 (stereo not drawn) | inactive: 82%
57 | Cc1ccccc1OCc1nnc(SCc2cc(=O)c3cccc(F)c3[nH]2)n1C | inactive: 83%
58 | COc1ccc2c(c1)c1c(c(=O)n(-c3cccc(Cl)c3)c(=O)n1CC(=O)N1CCCC1)n2C | inactive: 73%
